We go through 66 molecules from paper PMC6919601, “Identification of Plasmodium dipeptidyl aminopeptidase allosteric inhibitors by high throughput screening” (PLoS ONE, 2019).

The whole screen tested about 110,000 compounds, of which about 230 (0.21%) showed an effect of 50% or more. The list shows a part of the results.
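Also: 30 min substrate incubation versus DMSO and 10 µM JCP410 controls.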

DPAP1, sequence (Q8IIJ9 whole entry, looked up): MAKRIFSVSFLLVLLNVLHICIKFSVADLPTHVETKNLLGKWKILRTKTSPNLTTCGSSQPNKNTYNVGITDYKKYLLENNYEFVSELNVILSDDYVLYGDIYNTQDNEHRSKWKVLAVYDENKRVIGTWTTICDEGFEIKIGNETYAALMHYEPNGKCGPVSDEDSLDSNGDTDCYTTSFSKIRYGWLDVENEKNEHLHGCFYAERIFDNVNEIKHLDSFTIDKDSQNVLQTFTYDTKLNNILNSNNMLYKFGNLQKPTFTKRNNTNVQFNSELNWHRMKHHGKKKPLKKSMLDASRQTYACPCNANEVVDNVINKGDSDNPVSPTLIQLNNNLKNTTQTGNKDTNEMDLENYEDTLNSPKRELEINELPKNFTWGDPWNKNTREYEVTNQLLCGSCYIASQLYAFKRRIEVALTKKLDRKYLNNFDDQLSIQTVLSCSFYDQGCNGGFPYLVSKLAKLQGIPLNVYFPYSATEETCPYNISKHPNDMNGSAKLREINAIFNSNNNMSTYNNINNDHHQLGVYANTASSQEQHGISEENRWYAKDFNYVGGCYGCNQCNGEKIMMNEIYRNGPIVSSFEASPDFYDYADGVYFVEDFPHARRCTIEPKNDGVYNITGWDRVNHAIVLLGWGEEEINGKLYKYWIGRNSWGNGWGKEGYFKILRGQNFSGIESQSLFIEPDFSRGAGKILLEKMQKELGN

The test addresses DPAP1 (Plasmodium falciparum, UniProt Q8IIJ9). The experiment in a line: primary screen, percent inhibition; read by cleavage of a fluorogenic dipeptide substrate; higher = more effect of the substance. On the set-up: species or system P. falciparum D10 trophozoite lysates; single well.
Consider `CCCCN1CCc2c([nH]c3c(C)cccc23)C1=O`, for which the “% Inhibition @ 10 uM” value is reported as 1.7%. In the case of `O=C(c1ccccn1)c1conc1C(=O)c1ccc(Br)cc1`, the “% Inhibition @ 10 uM” value was 3.72%.

Take `COc1ccccc1/C=C/CNc1ccc(F)c(F)c1`: the “% Inhibition @ 10 uM” value was -0.414%. For `O=C(CNS(=O)(=O)c1cccs1)N1CCN(C(=O)c2ccco2)CC1` the value was 4.06%; for `Cc1ccc2oc(C(=O)Nc3nc(-c4ccc(S(=O)(=O)N5CCOCC5)cc4)cs3)c(C)c2c1`, -3.18%. The result for `CCOC(=O)N1CCC(NC(=O)CS(=O)Cc2nc(-c3ccccc3F)oc2C)CC1` (stereo not drawn) reads -1.05%; that for `CC1=C(C(=O)Nc2ccccc2)C(c2ccccc2)C(C#N)=C(SCc2ccncc2)N1` (stereo not drawn), 27.8%; that for `COc1ccc(-c2cn3nc(N4CCC(C(=O)NCCc5cccs5)CC4)sc3n2)cc1`, -3.6%. Consider `COc1ccc(OC)c(NC(=O)C2C3CCC(C3)C2C(=O)O)c1` (stereo not drawn), for which the “% Inhibition @ 10 uM” value is -7.02%.

Turning to `COc1ccc(CNC2CCSC2)cc1` (stereo not drawn), the “% Inhibition @ 10 uM” value was -5.44%. Take `O=C1CC(c2ccccc2Br)c2cc3c(cc2N1)OCCO3` (stereo not drawn): the “% Inhibition @ 10 uM” value was -8.4%.

Take `CC1CCCC(N[C@H]2CC[C@H](O)CC2)C1` (stereo partly drawn): the “% Inhibition @ 10 uM” value was -0.0953%. The result for `NC(=O)C1CCN(C2CCc3ccccc3C2)CC1` (stereo not drawn) reads 1.57%; that for `Cc1ccc(NC(=O)c2ccco2)c(NC(=O)c2ccco2)c1`, -5.71%. In the case of `Cc1c2c(=O)n(-c3nc4ccccc4s3)[nH]c2cc(=O)n1CCc1ccccc1`, the “% Inhibition @ 10 uM” value is -0.834%. In the case of `COc1ccc(C2(O)C(C)[N+](c3ccccc3)=C3SCCCN32)c(F)c1` (stereo not drawn), the “% Inhibition @ 10 uM” value is -3.23%. Take `Cc1nc2ncccn2c1-c1csc(Nc2ncccn2)n1`: the “% Inhibition @ 10 uM” value is reported as 4.26%. The result for `COc1ccc(CCN2C(=O)C(NC(=O)CC(C)C)(C(F)(F)F)c3c(O)nc(O)nc32)cc1OC` (stereo not drawn) reads 1.91%; that for `Cc1nnc(SCC(=O)NCc2ccc(S(N)(=O)=O)cc2)nc1O`, 3.37%.

As for `CCOc1ccc(NC(=O)C2CC(C)=C(C)CC2C(=O)O)cc1` (stereo not drawn), the “% Inhibition @ 10 uM” value is reported as -1.42%. For `C=CCNC(=O)/C(=C\c1ccccc1)NC(=O)c1ccco1` the value was 2.3%.

In the case of `CC(C)c1ccc(S(=O)(=O)c2nnn3c2nc(N)c2ccccc23)cc1`, the “% Inhibition @ 10 uM” value is -5.07%.

Consider `Cc1ccc(-c2nnc(N3CCN(C(=O)CN4CCOCC4)CC3)c3ccccc23)cc1`, for which the “% Inhibition @ 10 uM” value is recorded as -4.62%. For the molecule `CNC(=O)CCCc1cn(Cc2ccccc2Cl)c2ccccc12`, the “% Inhibition @ 10 uM” value worked out at 3.27%. The result for `CCCSc1nnc(NC(=O)c2nc(S(=O)(=O)Cc3ccc(C)cc3)ncc2Cl)s1` reads 0.758%; that for `COc1ccc(/C=c2\sc3nc(-c4ccccc4Br)nn3c2=O)cc1OC`, -1.18%; that for `Cc1cc(C)c2c3c(sc2n1)C(c1cccc(Cl)c1)C(C#N)=C(N)O3` (stereo not drawn), -2.45%. Take `CC(NCc1c(F)cccc1Cl)c1ccccc1` (stereo not drawn): the “% Inhibition @ 10 uM” value is -4.68%. The result for `CCN(CC)CCCSc1nc2ccccc2s1` reads 4.42%; that for `Cc1ccccc1CNCC1CCC(C(=O)O)CC1` (stereo not drawn), -1.99%.

For the molecule `CCSc1nc(N)c(C#N)c(-c2ccco2)c1C#N`, the “% Inhibition @ 10 uM” value was -6.09%. The result for `COc1ccc2c(CNCc3cccc(Cl)c3)c(C(=O)O)[nH]c2c1` reads -2.68%. For `CCCC1CCC(C2CCC(C(=N)NO)CC2)CC1` (stereo not drawn) the value was -2.42%; for `O=C(Nc1ccccc1F)c1ccccc1Br`, 1.91%; for `O=C(Nc1ncc(Cc2cccc(Cl)c2Cl)s1)C1CC1`, -16.5%. Regarding `CCOC(=O)C1=C(CSc2nccn2C)NC(=O)NC1c1ccc2c(c1)OCO2` (stereo not drawn), the “% Inhibition @ 10 uM” value was -4.04%.

For `O=C(O)CCC(=O)Nc1ccc(Oc2ccc(Br)cc2)cc1`, the “% Inhibition @ 10 uM” value is recorded as 3.24%. `CCOC(=O)N1CCC(NC2CCCCCC2)CC1`: the “% Inhibition @ 10 uM” value was -2.18%. For `Cc1cccc(NS(=O)(=O)c2ccc(Cl)cc2)n1` the value was -2.36%; for `N#CC1=C(N)SC(N)=C(C#N)C1c1ccccc1Cl`, 18.7%; for `O=C(O)CCC(=O)Nc1ccc(Oc2ccc(Cl)cc2Cl)cc1`, 3.58%. As to `Cc1ccc(S(=O)(=O)NC(=O)Nc2ccc(Cl)cc2C)cc1`, the “% Inhibition @ 10 uM” value is -1.06%.

`COc1ccc(CN2CCN(Cc3ccc(F)cc3)CC2)cc1OC`: the “% Inhibition @ 10 uM” value is -0.69%.

Take `CCCCNC(=O)c1ccc(C2SCC(=O)N2Cc2ccccc2)cc1` (stereo not drawn): the “% Inhibition @ 10 uM” value is recorded as 1.19%.

Turning to `CCOC(=O)c1cnc(SCC(=O)NC2CCCCC2)nc1N`, the “% Inhibition @ 10 uM” value was determined as 2.21%. Consider `CCCCCN1C(C(=O)c2ccccc2)=C(NC(=O)c2ccc(F)cc2)c2ccccc2S1(=O)=O`, for which the “% Inhibition @ 10 uM” value is reported as 0.315%. For `O=C1C=C(N2CCN(c3ncccn3)CC2)C(=O)N1c1ccc(Br)cc1` the value was 0.76%. As for `Cc1c(Cl)cccc1NC(=O)/C=C\C(=O)O`, the “% Inhibition @ 10 uM” value is reported as -0.197%. As for `COc1ccc(-c2nc3cc(C)ccn3c2NC(=O)COc2ccccc2)cc1`, the “% Inhibition @ 10 uM” value was -2.74%. For `COc1cc(/C=N/n2c(SC)nnc2-c2ccccc2)c(Cl)cc1O`, the “% Inhibition @ 10 uM” value is 5.44%. Take `COc1ccc(CN2CCCCC2C)cc1C` (stereo not drawn): the “% Inhibition @ 10 uM” value was -6.18%. The result for `CC[C@H](NC(=O)[C@@H](NC(=O)c1ccc(-c2ccccc2Cl)cc1)C1CCCCC1)C(=O)c1nc2ncccc2o1` reads -1.82%; that for `CCSC1=C(C#N)C(=O)NC(c2ccc(O)cc2)S1` (stereo not drawn), 7.94%. In the case of `O=C(O)CCCNCP(=O)(O)CCc1ccccc1`, the “% Inhibition @ 10 uM” value amounted to 0.0719%. For the molecule `COc1ccccc1OCc1ccc(C(=O)N2CCCCC2)o1`, the “% Inhibition @ 10 uM” value was 0.909%. For `CC(C)CCNC(=O)CCN1C(=O)c2ccccc2Sc2ncccc21` the value was -2.1%; for `COc1ccc(-c2[nH]c3c(C#N)cnn3c2NC2CCCC(C)C2C)cc1` (stereo not drawn), 0.596%; for `CCOC(=O)N1CCN(C(=O)C2CCN(C(=O)c3cc4sccc4n3CC)CC2)CC1`, 4.95%.

Take `CCc1nnc(NC(=O)CSc2nnc(Cc3cccn3C)n2-c2ccccc2)s1`: the “% Inhibition @ 10 uM” value was determined as 0.44%. As for `COc1ccc(CCNC(=O)c2cc(C(F)(F)F)nn2C)cc1`, the “% Inhibition @ 10 uM” value was found to be 1.84%.

Regarding `O=C(Nc1cccnc1Cl)c1cc(-c2ccccc2F)no1`, the “% Inhibition @ 10 uM” value is given as -0.361%. The result for `Cc1nnc(N2CCC(C(=O)NCC(C)c3ccccc3)CC2)c2nn(-c3ccccc3)c(C)c12` (stereo not drawn) reads 2.99%; that for `Cc1ccc(SCCC(=O)NCc2ccccc2Cl)cc1`, 2.13%; that for `CCSC1=C(C#N)C(c2ccccc2)C(c2ccccc2)C(=O)N1` (stereo not drawn), 3.19%. For `CCOc1ccc(CC(=O)Nc2ccc(OC)cc2Cl)cc1OCC` the value was -4.52%; for `CC1(C)CC(n2c(=S)[nH]c3c(c2=O)C2(CCCC2)Cc2ccccc2-3)CCO1` (stereo not drawn), 1.72%.
